Reference: US8618306B2, “Method for preparing deuterated diphenylurea” (Suzhou Zelgen Biopharmaceutical Co., Ltd., priority 2010, dated 2013)

What was measured:
c-Kit = c-Kit (Homo sapiens, UniProt P10721); test: Tyrosine kinase inhibition at the molecular level by ELISA; format: biochemical; conditions: for results (efficacy evaluation): 10 μM, one verdict for c-Kit and PDGFR-β
Protocol: (§1) The activity of diphenylurea compounds for inhibiting c-Kit, PDGFR-β protein tyrosine kinase on molecular level was tested by Enzyme-Linked Immunosorbent Assay (ELISA).
(§2) Reaction substrate Poly(Glu,Tyr)4:1 was bought from Sigma. Monoclonal antibody against tyrosine phosphate PY99 was bought from Santa Cruz. Horseradish peroxidase labeled sheep-against-rat IgG was bought from Calbiochem; ATP, DTT, OPD were bought from Amresco; microplates were bought from Corning; Su11248 was bought from Merk.
(§3) See Roskoski, R., Jr. Sunitinib: a VEGF and PDGF receptor protein kinase and angiogenesis inhibitor. Biochem Biophys Res Commun, 356: 323-328, 2007. The details comprise:
(§4) Kinase reaction substrate Poly(Glu,Tyr)4:1 was diluted to 20 μg/ml by potassium-free PBS, and the microplates were coated. Diphenylurea samples to be tested were added in the wells of the coated microplates (the samples to be tested were made from the stock solution 10^−2 M in DMSO, and diluted to the desired concentration with reaction buffer before use. the resulted solution was added into the wells to get the final concentration of 10^−5 mol/L in 100 μL reaction system). At the same time, the positive control compound Su11248 was added into the positive control wells.
(§5) ATP solution diluted with reaction buffer (the final concentration of ATP is 5 μM) followed by addition of tyrosine kinase diluted with reaction buffer. The total volume of reaction system was 100 μL. At the same time, the negative control wells and the control wells without enzyme were set up.
(§6) The reaction system was placed in a wet box, and shaked for 1 h at 37° C. shielding from light. After the reaction was completed, the plates were washed with T-PBS for three times. Antibody PY99 was added (100 μL/well), and the plates were shaked for 30 min at 37° C. After the reaction was completed, the plates were washed with T-PBS for three times. Horseradish peroxidase labeled sheep-against-rat IgG was added (100 μL/well), and the plates were shaked for 30 min at 37° C. After the reaction was complete, the plates were washed with T-PBS for three times. OPD developing liquid was added (100 μL/well), and reacted for 1-10 min at room temperature shielding from light. 50 μL of 2 M H2SO4 was added to quench the reaction. A492 value was determined using wavelength-adjustable microplate reader VERSAmax.
(§7) The inhibition ratio of samples can be calculated by the following formula: […]

[1] = system: human hepatocellular carcinoma SMMC-7721; test: Inhibition of tumor growth in nude mice xenograft model; format: in vivo, Balb/c nu/nu nude mice; conditions: 100 mg/kg
Description: 70 Balb/c nu/nu nude mice, 6 weeks-old, female, were bought from Shanghai Experimental Animal Resource Center (Shanghai B&K Universal Group Limited).
SMMC-7721 cells were commercially available from Shanghai Institutes for Biological Science, CAS (Shanghai, China).
The establishment of tumor nude mice xenograft model: SMMC-7721 cells in logarithmic growth period were obtained. After cell number counting, the cells were suspended in 1×PBS, and the concentration of the cell suspension was adjusted to 1.5×10^7/ml. The tumor cells were inoculated under the skin of right armpit of nude mice with a 1 ml syringe, 3×10^6/0.2 ml/mice. 70 nude mice were inoculated in total.
When the tumor size reached 30-130 mm^3, 58 mice were divided randomly into different groups. […]
Animal body weight and tumor size were tested twice a week during the experiment. Clinical symptoms were recorded every day. At the end of the administration, the tumor size was recorded by taking pictures. […]
The formula for calculating the tumor volume (TV) is: TV=a×b^2/2, wherein a, b independently represent the length and the breadth of the tumor. The formula for calculating the relative tumor volume (RTV) is: RTV=Vt/V0, wherein V0 is the tumor volume at the beginning of the administration, and Vt is the tumor weight when measured. […]

in vivo = conditions: male, Sprague-Dawley, rat, serum, po, 3 mg/kg
PDGFR-β = PDGFR-β (Homo sapiens, UniProt P09619); test: Tyrosine kinase inhibition at the molecular level by ELISA; format: biochemical; conditions: 10 μM compound, ATP 5 μM, mean of duplicate
Protocol: as §1, §2, §3, §4, §5, §6, §7

| SMILES | AUC (in vivo) [ng·h/mL] | results (efficacy evaluation) (c-Kit) | other results |
| --- | --- | --- | --- |
| CNC(=O)c1cc(Oc2ccc(NC(=O)Nc3ccc(Cl)c(C(F)(F)F)c3)c(F)c2)ccn1 [CM4308, 4-(4-(3-(4-chloro-3-(trifluoromethyl)phenyl]ureido)-3-fluorophenoxy)-N-methylpicolinamide] | – | effective (The compound has efficacy if the inhibition rate of the tested compound at the experimental concentration 10^−5 mol/L was greater than 50%) | – |
| CCN(CC)CCNC(=O)c1c(C)[nH]c(/C=C2\C(=O)Nc3ccc(F)cc32)c1C [Su11248] | – | effective (The compound has efficacy if the inhibition rate of the tested compound at the experimental concentration 10^−5 mol/L was greater than 50%) | % Inhibition ratio for tyrosine kinase at 10 μM, PDGFR-β mean value (PDGFR-β): 93.9%; % Inhibition ratio for tyrosine kinase at 10 μM, c-Kit mean value (c-Kit; 10 μM compound, ATP 5 μM, mean of duplicate): 90.2% |
| [2H]C([2H])([2H])NC(=O)c1cc(Oc2ccc(NC(=O)Nc3ccc(Cl)c(C(F)(F)F)c3)c(F)c2)ccn1 [CM4309, 4-(4-(3-(4-chloro-3-(trifluoromethyl)phenyl]ureido)-3-fluorophenoxy)-N-(methyl-d3)picolinamide] | – | effective (The compound has efficacy if the inhibition rate of the tested compound at the experimental concentration 10^−5 mol/L was greater than 50%) | – |

Now from value to compound, other results behind:

| AUC (in vivo) [ng·h/mL] | SMILES | results (efficacy evaluation) (c-Kit) | other results |
| --- | --- | --- | --- |
| 11300 ± 2470 | [2H]C([2H])([2H])NC(=O)c1cc(Oc2ccc(NC(=O)Nc3ccc(Cl)c(C(F)(F)F)c3)cc2)ccn1 [CM4307, N-(4-chloro-3-(trifluoromethyl)phenyl)-N′-(4-(2-(N-(methyl-d3)aminoformyl)-4-pyridyloxy)phenyl)urea] | – | absolute value of tumor inhibition rate, increase compared with CM4306 ([1]; day 15): more than 10%; relative value of tumor inhibition rate, increase compared with CM4306 ([1]; day 15 (32.2%/19.6%−1=64%)): about 60% |
| 7330 ± 336 | CNC(=O)c1cc(Oc2ccc(NC(=O)Nc3ccc(Cl)c(C(F)(F)F)c3)cc2)ccn1 [CM4306, 4-(4-(3-(4-chloro-3-(trifluoromethyl)phenyl]ureido)-phenoxy)-N-methylpicolinamide] | effective (The compound has efficacy if the inhibition rate of the tested compound at the experimental concentration 10^−5 mol/L was greater than 50%) | – |
